Test results from a collection of fitness landscapes (doi:10.1016/j.celrep.2020.107928).
Over roughly 81,000 sequences, “one-hybrid fitness for binding NBS DNA” has its median near -0.1; the highest 2% begin near 0.36. This is one part of the list.

B1: Caulobacter ParB omega fusion; a variant is named by its letters at X, in order, B8GW30 (parent)
chain: MESVVVGEPGMSEGRRGLGRGLSALLGEVDAAPAQAPGEQLGGSREAPIEILQRNPDQPRRTFREEDLEDLSNSIREKGVLQPILVRPSPDTAGEYQIVAGERAWRAAQRAGLKTVPIMVRELDDLAVLEIGIIENVQRADLNVLEEALSYKVLMEKFERTQENIAQTIGKSXSHVANXMRLLXLPDEVQSYLVSGELTAXHARAIAAAADPVALAKQIIEGGLSVRETEALARKAPNLSAGKSKGGRPPRVKDTDTQALESDLSSVLGLDVSIDHRGSTGTLTITYATLEQLDDLCNRLTRGI

Variants of: B1
Assay: one-hybrid fitness for binding NBS DNA (the Noc-binding site; scaled: cognate 1, non-cognate 0); higher = stronger binding
Details: with NBS DNA site
Outline: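 Selection: bacterial one-hybrid in E. coli USO, HIS3 reporter with the site 19 bp from the promoter, 48 hours at 37°C on M9-minus-histidine plus 0.1 mM IPTG and 5 mM 3-AT. Libraries were Caulobacter ParB with four randomised specificity codons, sequenced on Illumina before and after selection. Fitness is the rescaled log change in variant-to-wild-type read ratio, anchored to the cognate and non-cognate sites.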

one-hybrid fitness for binding NBS DNA, 0.242:
RVIR

one-hybrid fitness for binding NBS DNA, 0.453:
QYMY

one-hybrid fitness for binding NBS DNA, 0.577:
RKMR

one-hybrid fitness for binding NBS DNA, 0.326:
QVAT

one-hybrid fitness for binding NBS DNA, 0.421:
QSNS

one-hybrid fitness for binding NBS DNA, 0.34:
QLMT

one-hybrid fitness for binding NBS DNA, 0.405:
EMMK

one-hybrid fitness for binding NBS DNA, 0.27:
PTKR

one-hybrid fitness for binding NBS DNA, 0.256:
VRSR

one-hybrid fitness for binding NBS DNA, ≤ 0.2:
ARPH
DVNH
TKIV
LQIG
MNSC
QREN
TIDL
PNAI
AIDF
QIMY
FPMG
YYYG
SCLF
GKYF
ETAD
HAHQ
YMDC
AGSP
IWPC
SSCW
QCYM
ALWM
ACLP
EQNC
CSKL
MFTR
VVGR
NSTR
IASR
ERQV
IGNL
DWGL
HGAS
SLDD
KFYR
HKLD
DLMS
VGKG
RFTQ
PWWR
IVMS
SRCG
EHVN
KSGT
MIQS
KTYI
PMTF
IWSI
YAEN
GNNY
FIVL
SMCC
FFCS
TQYT
AHVV
VDLL
DRVS
VLAI
SRDS
YETY
VQLC
KTWV
LIGC
PTAS
EIWR
RDCR
RQAA
AQLP
NMTT
YMVW
WHDS
SCYE
ASHC
FGAG
KAYV
THKK
NPVS
SVTC
EIVW
MKKS
HTLY
KWPV
DRQC
ECNW
MYQC
QNHS
AGVY
RYSD
HELP
PFTT
KSML
AQLV
AGDC
STTQ
SMTG
YWNR
PVLT
SNES
RKLW
SDAT
CLGK
NPGL
PSDR
RGIR
MQPL
LSAC
QHDG
VPFM
DTDG
CECT
TTRY
QDKG
TKPS
DAVT
VMPC
SSNY
ITKK
DKPY
PLVA
RLSK
PVTT
LYDF
HVFP
RFIM
THSD
GLSD
SSRR
YTKC
MRLL
NTIS
VAGS
KWVR
TKER
TCWC
LVWC
QRPV
SDPS
TDMG
QWNG
KMGN
YSCP
QSYV
LNLI
QWMD
KVRH
RTDC
IRET
VTDC
TPNK
TIHK
VTHV
AGAI
IHIL
RALY
TWTK
AAKV
SGFH
LHRY
WRRS
KKSN
QDDS
DKAT
KVGK
QNRA
PTMI
CTRM
PCMM
AKLE
RCMD
LILA
FERR
PCLN
GAQT
EATY
HRCA
QWHL
RGIN
PFYR
QHLH
ARMD
MLGT
LHSW
CHPV
ERRE
SFFN
RISQ
LCKS
RYWG
WQKE
LGRL
LDDF
AALC
GTRP
TWAD
ITIS
QVDR
IPCW
LERA
IRVN
KHGC
LLMF
SFES
VHYI
NLQQ
HRRC
CPYG
AAYV
TKVG
QLCA
HLWT
STIK
SDKI
AVLH
FLLT
WQCS
HFFC
TPSE
GYSS
VQKD
KLTC
EDSN
QLYA
SEQA
AHHC
VPTF
DVLT
WSLS
KGSV
RDDF
KMTS
DTNY
HPIG
WADR
MILC
LSNH
KMQL
SWWY
WSKK
SCTW
TRMV
VHTS
ARPE
ENIE
SIAR
RFPQ
LYRS
RLQD
DYSV
HNQM
RDES
KWSS
NCPW
TPSY
TTTE
LCDS
QADK
QPER
YVED
NDVD
SAPW
HENC
LNSA
DVSS
GEWR
HEQT
APIV
SMLG
TIFS
PYTY
GYVS
KEPN
EARW
DQTL
CYMG
WQAS
PKIN
AYLM
ARSD
HDTR
QIVA
RSAP
AWLE
TGAE
GRQN
IHPF
IKQF
ELPG
CHRS
SLRI
GTWV
QTAG

one-hybrid fitness for binding NBS DNA, 0.282:
RRPA

one-hybrid fitness for binding NBS DNA, 0.271:
TAKR

one-hybrid fitness for binding NBS DNA, 0.77:
RCRR

one-hybrid fitness for binding NBS DNA, 0.235:
NTRR

one-hybrid fitness for binding NBS DNA, 0.279:
VRAR

one-hybrid fitness for binding NBS DNA, 0.286:
RALT
